# Assay results as given in US9586962B2, “Disubstituted octahydropyrrolo [3,4-C] pyrroles as orexin receptor modulators” (Janssen Pharmaceutica NV, priority 2011, dated 2017).
# Biological target: T1, human orexin 1 receptor (Homo sapiens (Human), UniProt O43613)
# Experiment: not given
# Conditions: read-out: OR 1 Ki, radioligand competition binding
# T1 sequence (O43613 whole entry): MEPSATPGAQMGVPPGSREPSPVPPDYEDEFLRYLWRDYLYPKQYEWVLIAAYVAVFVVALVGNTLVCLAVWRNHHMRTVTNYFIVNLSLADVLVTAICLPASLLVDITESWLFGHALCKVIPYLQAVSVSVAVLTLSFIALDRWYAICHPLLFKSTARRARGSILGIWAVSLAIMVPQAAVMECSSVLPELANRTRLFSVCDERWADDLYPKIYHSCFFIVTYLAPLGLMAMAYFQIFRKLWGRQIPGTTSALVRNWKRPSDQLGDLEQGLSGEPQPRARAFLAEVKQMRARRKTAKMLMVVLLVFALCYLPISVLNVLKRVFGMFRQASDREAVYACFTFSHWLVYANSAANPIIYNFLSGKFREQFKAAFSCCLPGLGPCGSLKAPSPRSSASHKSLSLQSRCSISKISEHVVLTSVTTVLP
row,SMILES,Ki [µM]
1,"Cc1cc(C)nc(N2CC3CN(C(=O)c4ccc(OC(F)F)cc4-n4nccn4)CC3C2)n1 (stereo not shown) [Example 446, 2-{[4-(Difluoromethoxy)-2-(2H-1,2,3-triazol-2-yl)phenyl]carbonyl}-5-(4,6-dimethylpyrimidin-2-yl)octahydropyrrolo[3,4-c]pyrrole]",6.71
2,"O=C(c1cccc(F)c1-c1ccccn1)N1CC2CN(c3cnc4cc(F)c(F)cc4n3)CC2C1 (stereo not shown) [Example 452, 6,7-Difluoro-2-{5-[(3-fluoro-2-pyridin-2-ylphenyl)carbonyl]hexahydropyrrolo[3,4-c]pyrrol-2(1H)-yl}quinoxaline]",0.692
3,"CCOc1ncccc1C(=O)N1CC2CN(c3ncc4cc(F)ccc4n3)CC2C1 (stereo not shown) [Example 448, 2-{5-[(2-Ethoxypyridin-3-yl)carbonyl]hexahydropyrrolo[3,4-c]pyrrol-2(1H)-yl}-6-fluoroquinazoline]",4.4
4,"CCOc1ccc(C)nc1C(=O)N1CC2CN(c3cc(N(C)C)nc(C)n3)CC2C1 (stereo not shown) [Example 420, 6-{5-[(3-Ethoxy-6-methylpyridin-2-yl)carbonyl]hexahydro-pyrrolo[3,4-c]pyrrol-2(1H)-yl}-N,N,2-trimethylpyrimidin-4-amine]",10
5,"Cc1ccc(-c2ncc(C)o2)c(C(=O)N2CC3CN(c4cc(N(C)C)nc(C)n4)CC3C2)n1 (stereo not shown) [Example 429, N,N,2-Trimethyl-6-[5-{[6-methyl-3-(5-methyl-1,3-oxazol-2-yl)pyridin-2-yl]carbonyl}hexahydropyrrolo[3,4-c]pyrrol-2(1H)-yl]pyrimidin-4-amine]",9
6,"CCOc1ncccc1C(=O)N1CC2CN(c3nc(C)cc(C)n3)CC2C1 (stereo not shown) [Example 415, 2-(4,6-Dimethylpyrimidin-2-yl)-5-[(2-ethoxypyridin-3-yl)carbonyl]octahydropyrrolo[3,4-c]pyrrole]",9
7,"Cc1cc(C)nc(N2CC3CN(C(=O)c4c(F)cccc4-c4nnc[nH]4)CC3C2)n1 (stereo not shown) [Example 437, 2-(4,6-Dimethylpyrimidin-2-yl)-5-{[2-fluoro-6-(1H-1,2,4-triazol-5-yl)phenyl]carbonyl}octahydropyrrolo[3,4-c]pyrrole]",10
8,"Cc1nc(N2CC3CN(C(=O)c4ncc(Cl)cc4-n4nccn4)CC3C2)nc(C)c1C (stereo not shown) [Example 442, 2-{[5-Chloro-3-(2H-1,2,3-triazol-2-yl)pyridin-2-yl]carbonyl}-5-(4,5,6-trimethylpyrimidin-2-yl)octahydropyrrolo[3,4-c]pyrrole]",1.13
9,"Cc1cc(C)nc(N2CC3CN(C(=O)c4nc(C)ccc4-c4ncccn4)CC3C2)n1 (stereo not shown) [Example 421, 2-(4,6-Dimethylpyrimidin-2-yl)-5-[(6-methyl-3-pyrimidin-2-ylpyridin-2-yl)carbonyl]octahydropyrrolo[3,4-c]pyrrole]",5.92
10,"O=C(c1cccc(F)c1I)N1CC2CN(c3cnc4cc(F)c(F)cc4n3)CC2C1 (stereo not shown) [Example 449, 6,7-Difluoro-2-{5-[(3-fluoro-2-iodophenyl)carbonyl]hexahydropyrrolo[3,4-c]pyrrol-2(1H)-yl}quinoxaline]",1.5
11,"CCCOc1ccc(C)nc1C(=O)N1CC2CN(c3cc(N(C)C)nc(C)n3)CC2C1 (stereo not shown) [Example 424, N,N,2-Trimethyl-6-{5-[(6-methyl-3-propoxypyridin-2-yl)carbonyl]hexahydropyrrolo[3,4-c]pyrrol-2(1H)-yl}pyrimidin-4-amine]",10
12,"Cc1noc(-c2c(F)cccc2C(=O)N2CC3CN(c4ncc(F)c(C)n4)CC3C2)n1 (stereo not shown) [Example 440, 2-{[3-Fluoro-2-(3-methyl-1,2,4-oxadiazol-5-yl)phenyl]carbonyl}-5-(5-fluoro-4-methylpyrimidin-2-yl)octahydropyrrolo[3,4-c]pyrrole]",5
13,"COc1ccc(-n2nccn2)c(C(=O)N2CC3CN(c4cc(N(C)C)nc(C)n4)CC3C2)c1 (stereo not shown) [Example 423, 6-[5-{[5-Methoxy-2-(2H-1,2,3-triazol-2-yl)phenyl]carbonyl}hexahydropyrrolo[3,4-c]pyrrol-2(1H)-yl]-N,N,2-trimethylpyrimidin-4-amine]",2.86
14,"COc1ccc(C(=O)N2CC3CN(c4nc(C)cc(CO)n4)CC3C2)c(-n2nccn2)c1 (stereo not shown) [Example 435, {2-[5-{[4-Methoxy-2-(2H-1,2,3-triazol-2-yl)phenyl]carbonyl}hexahydropyrrolo[3,4-c]pyrrol-2(1H)-yl]-6-methylpyrimidin-4-yl}methanol]",3.97
15,"Cc1nc(N(C)C)cc(N2CC3CN(C(=O)c4c(F)cccc4-n4nccn4)CC3C2)n1 (stereo not shown) [Example 418, 6-[5-{[2-Fluoro-6-(2H-1,2,3-triazol-2-yl)phenyl]carbonyl}hexahydropyrrolo[3,4-c]pyrrol-2(1H)-yl]-N,N,2-trimethylpyrimidin-4-amine]",0.741
16,"O=C(c1cccc(F)c1-c1ncccc1F)N1CC2CN(c3cnc4cc(F)c(F)cc4n3)CC2C1 (stereo not shown) [Example 450, 6,7-Difluoro-2-[5-{[3-fluoro-2-(3-fluoropyridin-2-yl)phenyl]carbonyl}hexahydropyrrolo[3,4-c]pyrrol-2(1H)-yl]quinoxaline]",0.922
17,"Cc1cc(C)nc(N2CC3CN(C(=O)c4ncccc4C(F)(F)F)CC3C2)n1 (stereo not shown) [Example 413, 2-(4,6-Dimethylpyrimidin-2-yl)-5-{[3-(trifluoromethyl)pyridin-2-yl]carbonyl}octahydropyrrolo[3,4-c]pyrrole]",10
18,"Cc1cc(C)nc(N2CC3CN(C(=O)c4nc(C)ccc4-c4ncc(C)o4)CC3C2)n1 (stereo not shown) [Example 422, 2-(4,6-Dimethylpyrimidin-2-yl)-5-{[6-methyl-3-(5-methyl-1,3-oxazol-2-yl)pyridin-2-yl]carbonyl}octahydropyrrolo[3,4-c]pyrrole]",10
19,"COc1cccnc1-c1c(F)cccc1C(=O)N1CC2CN(c3cnc4cc(F)c(F)cc4n3)CC2C1 (stereo not shown) [Example 453, 6,7-Difluoro-2-[5-{[3-fluoro-2-(3-methoxypyridin-2-yl)phenyl]carbonyl}hexahydropyrrolo[3,4-c]pyrrol-2(1H)-yl]quinoxaline]",2.77
20,"Cc1nc(N(C)C)cc(N2CC3CN(C(=O)c4cccc(F)c4-c4ncccn4)CC3C2)n1 (stereo not shown) [Example 427, 6-{5-[(3-Fluoro-2-pyrimidin-2-ylphenyl)carbonyl]hexahydropyrrolo[3,4-c]pyrrol-2(1H)-yl}-N, N,2-trimethylpyrimidin-4-amine]",1.26

# Further lines, results first:
row,Ki [µM],SMILES
1,10,"Cc1cc(C)nc(N2CC3CN(C(=O)c4c(C)nc5sccn45)CC3C2)n1 (stereo not shown) [Example 464, 5-{[5-(4,6-Dimethylpyrimidin-2-yl)hexahydropyrrolo[3,4-c]pyrrol-2(1H)-yl]carbonyl}-6-methylimidazo[2,1-b][1,3]thiazole]"
2,10,"Cc1cc(C)nc(N2CC3CN(C(=O)c4c(F)cccc4-c4ccnnc4)CC3C2)n1 (stereo not shown) [Example 488, 2-(4,6-Dimethylpyrimidin-2-yl)-5-[(2-fluoro-6-pyridazin-4-ylphenyl)carbonyl]octahydropyrrolo[3,4-c]pyrrole]"
3,10,"Cc1cc(C)nc(N2CC3CN(C(=O)c4cc(F)ccc4-c4cccn4C)CC3C2)n1 (stereo not shown) [Example 493, 2-(4,6-Dimethylpyrimidin-2-yl)-5-{[5-fluoro-2-(1-methyl-1H-pyrrol-2-yl)phenyl]carbonyl}octahydropyrrolo[3,4-c]pyrrole]"
4,1.3,"Cc1cc(C)nc(N2CC3CN(C(=O)c4c(F)cccc4-c4cscn4)CC3C2)n1 (stereo not shown) [Example 486, 2-(4,6-Dimethylpyrimidin-2-yl)-5-{[2-fluoro-6-(1,3-thiazol-4-yl)phenyl]carbonyl}octahydropyrrolo[3,4-c]pyrrole]"
5,2.35,"COc1cccc(-n2nccn2)c1C(=O)N1CC2CN(c3nc(C)cc(C)n3)CC2C1 (stereo not shown) [Example 465, 2-(4,6-Dimethylpyrimidin-2-yl)-5-{[2-methoxy-6-(2H-1,2,3-triazol-2-yl)phenyl]carbonyl}octahydropyrrolo[3,4-c]pyrrole]"
6,1.73,"Cc1nc(N2CC3CN(C(=O)c4cccc(F)c4-c4ncco4)CC3C2)ncc1F (stereo not shown) [Example 496, 2-(5-Fluoro-4-methylpyrimidin-2-yl)-5-{[3-fluoro-2-(1,3-oxazol-2-yl)phenyl]carbonyl}octahydropyrrolo[3,4-c]pyrrole]"
7,10,"Cc1cc(C)nc(N2CC3CN(C(=O)c4cc(F)ccc4-c4cscn4)CC3C2)n1 (stereo not shown) [Example 494, 2-(4,6-Dimethylpyrimidin-2-yl)-5-{[5-fluoro-2-(1,3-thiazol-4-yl)phenyl]carbonyl}octahydropyrrolo[3,4-c]pyrrole]"
8,10,"Cc1cc(C)nc(N2CC3CN(C(=O)c4c(F)cccc4C4=CC(=O)OC4)CC3C2)n1 (stereo not shown) [Example 480, 4-(2-{[5-(4,6-Dimethylpyrimidin-2-yl)hexahydropyrrolo[3,4-c]pyrrol-2(1H)-yl]carbonyl}-3-fluorophenyl)furan-2(5H)-one]"

# Biological target: T1, human orexin 1 receptor
# Experiment: biochemical
# Conditions: not given
row,Ki [nM],SMILES
1,4220,"Cc1cc(C)nc(N2CC3CN(C(=O)c4c(F)cccc4-c4[nH]ncc4C(F)(F)F)CC3C2)n1 (stereo not shown) [Example 478, 2-(4,6-Dimethylpyrimidin-2-yl)-5-({2-fluoro-6-[4-(trifluoromethyl)-1H-pyrazol-5-yl]phenyl}carbonyl)octahydropyrrolo[3,4-c]pyrrole]"
2,2400,"Cc1cc(C)nc(N2CC3CN(C(=O)c4c(F)cccc4-c4ccc(Cl)cn4)CC3C2)n1 (stereo not shown) [Example 484, 2-{[2-(5-Chloropyridin-2-yl)-6-fluorophenyl]carbonyl}-5-(4,6-dimethylpyrimidin-2-yl)octahydropyrrolo[3,4-c]pyrrole]"
3,1880,"[2H]c1c(C([2H])([2H])[2H])nc(N2CC3CN(C(=O)c4cccc(F)c4-c4ncccn4)CC3C2)nc1C([2H])([2H])[2H] (stereo not shown) [Example 431, 2-{4,6-Bis[(^2H3)methyl](^2H)pyrimidin-2-yl}-5-[(3-fluoro-2-pyrimidin-2-ylphenyl)carbonyl]octahydropyrrolo[3,4-c]pyrrole]"
